Assay results published in PMC13189625.
Results are given in words; binding and its absence hold for the method and conditions named. In cells and extracts the contact can be indirect. Some binding calls cover weakened binding; strength is not graded here. For part of these data: Sequences can lack the tags named with a protein.

The chains behind the UniProt entries cited, without tags or fusion partners.
UniProt G3X9J0: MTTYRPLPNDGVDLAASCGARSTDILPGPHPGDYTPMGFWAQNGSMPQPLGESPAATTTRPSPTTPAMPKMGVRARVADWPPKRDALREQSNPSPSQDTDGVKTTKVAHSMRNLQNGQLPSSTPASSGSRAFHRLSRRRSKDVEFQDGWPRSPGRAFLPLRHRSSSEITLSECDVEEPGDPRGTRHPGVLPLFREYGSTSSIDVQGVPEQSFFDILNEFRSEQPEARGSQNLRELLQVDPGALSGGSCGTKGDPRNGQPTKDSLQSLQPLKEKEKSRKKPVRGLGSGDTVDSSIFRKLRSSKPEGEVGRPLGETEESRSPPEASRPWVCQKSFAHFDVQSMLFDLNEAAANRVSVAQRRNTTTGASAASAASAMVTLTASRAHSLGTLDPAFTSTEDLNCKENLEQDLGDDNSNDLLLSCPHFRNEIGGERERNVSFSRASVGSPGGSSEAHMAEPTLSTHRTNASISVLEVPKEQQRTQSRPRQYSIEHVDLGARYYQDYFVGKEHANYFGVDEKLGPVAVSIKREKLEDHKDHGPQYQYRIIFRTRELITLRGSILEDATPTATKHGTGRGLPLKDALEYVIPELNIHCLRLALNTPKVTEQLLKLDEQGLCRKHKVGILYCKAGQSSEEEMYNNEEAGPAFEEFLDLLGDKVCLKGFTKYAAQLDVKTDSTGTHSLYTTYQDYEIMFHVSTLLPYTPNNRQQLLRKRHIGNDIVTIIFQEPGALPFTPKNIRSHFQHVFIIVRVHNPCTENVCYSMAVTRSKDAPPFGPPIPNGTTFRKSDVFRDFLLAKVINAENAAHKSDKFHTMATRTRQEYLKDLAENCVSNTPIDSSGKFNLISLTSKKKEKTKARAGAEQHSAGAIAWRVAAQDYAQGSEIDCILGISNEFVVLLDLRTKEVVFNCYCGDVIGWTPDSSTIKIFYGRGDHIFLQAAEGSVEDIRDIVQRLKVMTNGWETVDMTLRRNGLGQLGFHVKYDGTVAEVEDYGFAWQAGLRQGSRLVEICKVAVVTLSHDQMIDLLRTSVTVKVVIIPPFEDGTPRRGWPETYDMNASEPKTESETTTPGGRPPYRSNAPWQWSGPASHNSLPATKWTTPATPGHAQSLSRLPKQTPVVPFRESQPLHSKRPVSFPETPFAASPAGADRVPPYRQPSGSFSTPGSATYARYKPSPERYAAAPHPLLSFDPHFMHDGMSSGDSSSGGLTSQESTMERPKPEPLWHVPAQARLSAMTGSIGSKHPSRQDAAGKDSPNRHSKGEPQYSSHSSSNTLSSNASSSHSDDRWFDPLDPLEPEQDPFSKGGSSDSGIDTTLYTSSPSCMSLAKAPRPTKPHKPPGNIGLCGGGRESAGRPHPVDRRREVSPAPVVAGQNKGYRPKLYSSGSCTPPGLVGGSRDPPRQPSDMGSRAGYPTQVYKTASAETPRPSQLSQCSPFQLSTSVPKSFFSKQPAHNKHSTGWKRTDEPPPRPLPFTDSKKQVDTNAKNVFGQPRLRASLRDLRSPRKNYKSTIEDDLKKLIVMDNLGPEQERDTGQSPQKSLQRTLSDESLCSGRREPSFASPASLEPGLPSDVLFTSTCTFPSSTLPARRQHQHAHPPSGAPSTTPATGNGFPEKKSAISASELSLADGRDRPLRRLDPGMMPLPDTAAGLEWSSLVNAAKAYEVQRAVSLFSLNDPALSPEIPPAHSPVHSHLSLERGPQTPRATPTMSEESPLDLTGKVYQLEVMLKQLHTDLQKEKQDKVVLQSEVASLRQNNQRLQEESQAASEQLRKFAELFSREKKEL

T1: FLAG-Sj2bp (UniProt P57105)
T1 sequence: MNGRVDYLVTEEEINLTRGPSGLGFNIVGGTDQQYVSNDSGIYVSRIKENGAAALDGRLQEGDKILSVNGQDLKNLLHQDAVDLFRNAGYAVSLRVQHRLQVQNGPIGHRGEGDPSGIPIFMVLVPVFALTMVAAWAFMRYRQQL

T2: GFP-ZO-2 (UniProt Q9UDY2)
T2 sequence: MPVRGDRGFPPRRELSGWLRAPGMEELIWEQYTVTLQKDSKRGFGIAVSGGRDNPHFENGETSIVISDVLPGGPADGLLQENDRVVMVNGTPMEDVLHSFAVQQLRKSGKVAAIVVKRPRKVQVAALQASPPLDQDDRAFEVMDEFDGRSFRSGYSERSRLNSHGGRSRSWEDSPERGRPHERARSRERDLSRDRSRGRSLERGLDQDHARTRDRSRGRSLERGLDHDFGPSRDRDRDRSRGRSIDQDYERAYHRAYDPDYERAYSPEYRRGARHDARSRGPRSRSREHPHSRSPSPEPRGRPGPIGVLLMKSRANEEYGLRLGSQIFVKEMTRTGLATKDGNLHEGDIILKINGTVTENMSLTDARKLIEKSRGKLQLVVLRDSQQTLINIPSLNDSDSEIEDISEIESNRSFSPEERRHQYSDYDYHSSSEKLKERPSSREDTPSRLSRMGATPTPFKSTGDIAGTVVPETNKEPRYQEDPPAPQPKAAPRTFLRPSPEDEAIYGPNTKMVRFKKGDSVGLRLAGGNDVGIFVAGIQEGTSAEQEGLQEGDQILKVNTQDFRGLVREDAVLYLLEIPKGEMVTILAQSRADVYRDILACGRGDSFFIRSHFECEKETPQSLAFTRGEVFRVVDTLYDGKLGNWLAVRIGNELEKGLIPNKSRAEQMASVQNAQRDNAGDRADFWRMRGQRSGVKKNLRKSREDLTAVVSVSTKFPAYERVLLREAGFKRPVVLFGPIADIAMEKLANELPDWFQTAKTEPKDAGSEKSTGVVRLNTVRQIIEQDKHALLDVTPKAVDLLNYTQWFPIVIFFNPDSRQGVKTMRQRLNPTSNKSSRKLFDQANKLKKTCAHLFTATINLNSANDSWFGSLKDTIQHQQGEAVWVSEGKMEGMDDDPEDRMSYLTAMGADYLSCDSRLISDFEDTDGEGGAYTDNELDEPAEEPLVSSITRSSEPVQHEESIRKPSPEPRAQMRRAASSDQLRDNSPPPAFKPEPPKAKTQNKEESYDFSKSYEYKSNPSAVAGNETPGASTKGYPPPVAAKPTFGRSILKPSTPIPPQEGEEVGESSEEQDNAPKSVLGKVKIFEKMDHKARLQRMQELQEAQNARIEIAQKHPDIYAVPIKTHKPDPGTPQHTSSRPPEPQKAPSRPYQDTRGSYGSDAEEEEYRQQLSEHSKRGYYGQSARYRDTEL

T3: Venus-ZO-1, Q07157
T3 chain: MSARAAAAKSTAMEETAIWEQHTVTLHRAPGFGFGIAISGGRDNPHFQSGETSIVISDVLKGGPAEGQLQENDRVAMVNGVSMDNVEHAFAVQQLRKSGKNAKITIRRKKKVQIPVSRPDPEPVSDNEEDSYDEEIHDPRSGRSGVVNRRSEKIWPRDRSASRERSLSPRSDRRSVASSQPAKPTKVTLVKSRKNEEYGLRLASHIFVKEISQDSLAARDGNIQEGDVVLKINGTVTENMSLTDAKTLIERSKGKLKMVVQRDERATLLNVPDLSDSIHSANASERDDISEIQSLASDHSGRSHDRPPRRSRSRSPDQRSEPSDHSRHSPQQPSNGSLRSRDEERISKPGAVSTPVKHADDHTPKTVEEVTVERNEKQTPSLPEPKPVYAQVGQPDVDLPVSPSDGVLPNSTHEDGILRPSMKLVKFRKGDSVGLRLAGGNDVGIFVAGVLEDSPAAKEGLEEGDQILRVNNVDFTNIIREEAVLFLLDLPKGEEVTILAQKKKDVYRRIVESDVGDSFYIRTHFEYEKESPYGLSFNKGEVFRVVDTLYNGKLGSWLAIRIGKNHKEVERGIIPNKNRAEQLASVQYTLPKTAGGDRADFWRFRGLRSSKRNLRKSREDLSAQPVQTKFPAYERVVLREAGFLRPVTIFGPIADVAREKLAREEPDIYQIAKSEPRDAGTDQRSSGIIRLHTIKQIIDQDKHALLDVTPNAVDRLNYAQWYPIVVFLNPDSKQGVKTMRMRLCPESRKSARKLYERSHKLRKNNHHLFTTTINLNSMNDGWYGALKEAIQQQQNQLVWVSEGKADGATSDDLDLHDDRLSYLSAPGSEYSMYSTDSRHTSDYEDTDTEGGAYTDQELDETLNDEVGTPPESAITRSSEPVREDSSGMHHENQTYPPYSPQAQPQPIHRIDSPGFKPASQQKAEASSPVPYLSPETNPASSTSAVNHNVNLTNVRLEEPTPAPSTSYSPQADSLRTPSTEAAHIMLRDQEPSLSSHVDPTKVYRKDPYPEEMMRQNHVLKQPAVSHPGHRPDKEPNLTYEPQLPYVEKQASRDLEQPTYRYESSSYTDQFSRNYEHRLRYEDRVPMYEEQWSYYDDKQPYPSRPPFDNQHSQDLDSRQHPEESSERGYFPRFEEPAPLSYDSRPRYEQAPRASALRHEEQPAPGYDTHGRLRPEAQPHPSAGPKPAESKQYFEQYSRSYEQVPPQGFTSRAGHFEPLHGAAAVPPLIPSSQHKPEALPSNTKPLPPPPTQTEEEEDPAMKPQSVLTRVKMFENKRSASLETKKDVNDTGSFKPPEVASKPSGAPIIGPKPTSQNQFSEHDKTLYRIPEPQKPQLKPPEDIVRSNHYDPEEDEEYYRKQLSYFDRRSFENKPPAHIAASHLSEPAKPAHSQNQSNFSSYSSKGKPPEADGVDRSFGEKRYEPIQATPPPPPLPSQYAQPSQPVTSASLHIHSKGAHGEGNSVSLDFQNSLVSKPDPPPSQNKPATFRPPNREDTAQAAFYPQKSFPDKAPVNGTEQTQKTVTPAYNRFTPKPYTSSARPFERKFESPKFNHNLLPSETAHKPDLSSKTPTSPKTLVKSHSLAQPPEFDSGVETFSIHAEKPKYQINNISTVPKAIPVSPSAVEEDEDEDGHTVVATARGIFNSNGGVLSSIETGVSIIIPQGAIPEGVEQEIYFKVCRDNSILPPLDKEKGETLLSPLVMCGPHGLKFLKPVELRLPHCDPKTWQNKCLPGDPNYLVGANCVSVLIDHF


Key:
Myc-Sipa1l3 = Myc-Sipa1l3 (UniProt G3X9J0); experiment: co-IP; co-transfected HEK293T lysate; 0.5 µg Sipa1l3 antibody overnight, then protein A/G beads 1 h at 4°C; Western blot
FLAG-Sj2bp = biological target: T1, FLAG-Sj2bp; experiment: co-IP; co-transfected HEK293T lysate cleared at 20,000 × g; DYKDDDDK Fab-Trap agarose overnight, FLAG-Sj2bp as bait; Western blot
GFP-ZO-2 = biological target: T2, GFP-ZO-2; experiment: co-IP; co-transfected HEK293T lysate; GFP-Trap agarose overnight at 4°C; IP buffer with 200 mM NaCl, 1% Tx-100, 50 mM Tris HCl pH 7.5; Western blot
Venus-ZO-1, Q07157 = biological target: T3, Venus-ZO-1, Q07157; experiment: as above; conditions: remark: other sources report otherwise

| Molecule | binding (Myc-Sipa1l3) | binding (FLAG-Sj2bp) | binding (GFP-ZO-2) | binding (Venus-ZO-1, Q07157) |
| --- | --- | --- | --- | --- |
| Connexin 36 (from UniProt O54851 1-321) | binds | no binding | binds | – |
| Cx36/S318Ter (from UniProt O54851 1-317) (domain or fragment) | no binding | no binding | – | – |
| Connexin 36, O54851 1-321 (protein) MGEWTILERLLEAAVQQHSTMIGRILLTVVVIFRILIVAIVGETVYDDEQTMFVCNTLQPGCNQACYDRAFPISHIRYWVFQIIMVCTPSLCFITYSVHQSAKQRERRYSTVFLALDRDPAESIGGPGGTGGGGSGGSKREDKKLQNAIVNGVLQNTETTSKETEPDCLEVKELTPHPSGLRTAARSKLRRQEGISRFYIIQVVFRNALEIGFLVGQYFLYGFSVPGLYECNRYPCIKEVECYVSRPTEKTVFLVFMFAVSGICVVLNLAELNHLGWRKIKLAVRGAQAKRKSVYEIRNKDLPRVSVPNFGRTQSSDSAYV | – | – | – | binds |
